About 800 (1.6%) of roughly 50,000 compounds showed an effect of 50% or more. Some of the results follow.
Target: Bcl-2-like protein 10 (Homo sapiens) (UniProt Q9HD36)
Test: Phenotype converters, Bcl-B/TR3 peptide binding displacement, primary biochemical FP (AID 1240);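 also: 0% = Bcl-B with tracer peptide and DMSO and 100% = tracer peptide lacking Bcl-B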
Conditions: GST-Bcl-B / FITC-TR3 peptide fluorescence polarization; stronger effect = higher value; compound at 3.75 mg/L

UniProt Q9HD36, sequence (Q9HD36 whole entry, looked up): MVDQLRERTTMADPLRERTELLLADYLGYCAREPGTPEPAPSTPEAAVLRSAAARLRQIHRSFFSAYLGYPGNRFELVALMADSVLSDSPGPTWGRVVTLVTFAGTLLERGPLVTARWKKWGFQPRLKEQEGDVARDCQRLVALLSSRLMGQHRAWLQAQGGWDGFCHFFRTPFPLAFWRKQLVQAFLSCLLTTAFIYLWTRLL

Question: For `COc1ccccc1NC1=NC2(CCCCC2)N=C(N)N1`, which displacement is on record?
Answer: 0.1%

Question: `O=S(=O)(Nc1ccc(O)cc1)c1ccc(Br)cc1` was tested. Which displacement did it give?
Answer: 12.2%

Question: How did the displacement turn out when `O=C(O)CCCCCN1C(=O)C(=O)/C(=C(/O)c2ccc(F)cc2)C1c1ccccc1F` (centres undefined) was run?
Answer: -7.2%

Question: Which displacement does the source give for `Cc1cc2nc(-c3cc(NC(=O)COc4ccccc4[N+](=O)[O-])ccc3Cl)oc2cc1C` here?
Answer: -23.2%

Question: With `O=C(NC(=S)Nc1ccccc1)c1ccccc1` as the compound, how does the displacement read?
Answer: 4.7%

Question: `Cc1ccc(C2CC(C(F)(F)F)n3nc(C(=O)O)cc3N2)cc1` (centres undefined) was tested. Which displacement did it give?
Answer: -4.1%

Question: With `COC(=O)c1c(NC(=O)c2ccc(F)cc2)sc(Cc2ccccc2)c1C` as the compound, how does the displacement read?
Answer: -6.6%

Question: For `COc1ccccc1NC(=O)c1sc(N)c(C(=O)OC(C)C)c1C`, which displacement is on record?
Answer: -4.5%

Question: With `COC(=O)CN(c1ccccc1C)S(=O)(=O)c1ccc(C)cc1` as the compound, how does the displacement read?
Answer: 0.1%

Question: For `CC(=O)N(Cc1ccco1)C1CC(=O)N(c2ccc(Cl)cc2)C1=O` (centres undefined), which displacement is on record?
Answer: -3.8%

Question: For `CC12CCC(C(=O)N(c3nc(-c4ccccc4)cs3)C1=O)C2(C)C` (centres undefined), which displacement is on record?
Answer: 0.6%

Question: With `O=C(NC(NC(=S)Nc1ccccc1Cl)C(Cl)(Cl)Cl)c1ccccc1Br` (centres undefined) as the compound, how does the displacement read?
Answer: 1%

Question: For `O=C(N/N=C/c1cccc(Cl)c1Cl)c1cc(Br)ccc1O`, which displacement is on record?
Answer: 3.3%

Question: For `CS(=O)(=O)c1ccc2nc(NC(=O)c3ccc(Cl)c(Cl)c3)sc2c1`, which displacement is on record?
Answer: 11.8%

Question: How did the displacement turn out when `COc1ccc(S(=O)(=O)N2CCN(Cc3cc(OC)ccc3OC)CC2)cc1` was run?
Answer: -4.3%

Question: `COc1ccc(C(c2c(O)cc(C)oc2=O)c2c(O)cc(C)oc2=O)cc1` was tested. Which displacement did it give?
Answer: -10.3%

Question: With `COc1cc(NC(=O)c2cc3nc(-c4ccc5c(c4)OCO5)cc(C(F)(F)F)n3n2)c(OC)cc1Cl` as the compound, how does the displacement read?
Answer: 2.8%

Question: For `COc1ccc(OC)c(C2/C(=C(\O)c3ccc(C)cc3)C(=O)C(=O)N2CCCC(=O)O)c1` (centres undefined), which displacement is on record?
Answer: 4%

Question: `Cc1oc(C)c2c(=O)cc(-c3ccc4c(c3)OCO4)cc(O)c12` was tested. Which displacement did it give?
Answer: 4.8%

Question: With `Cc1ccccc1-c1nc2cc(NC(=S)NC(=O)c3ccc(Cl)cc3)ccc2o1` as the compound, how does the displacement read?
Answer: 37.3%

Question: For `O=c1oc2ccccc2c(N2CCCC2)c1CN1CCCC1`, which displacement is on record?
Answer: 0.5%

Question: For `O=C(COc1ccccc1Cl)Nc1cccc(-c2cc3ccccc3oc2=O)c1`, which displacement is on record?
Answer: -3.6%

Question: How did the displacement turn out when `O=[N+]([O-])c1ccc(N2CCOCC2)cc1NCCOc1ccc(Cl)cc1` was run?
Answer: 22.1%

Question: `O=C(c1ccc(F)cc1)N1CCN(S(=O)(=O)c2ccc(Cl)cc2)CC1` was tested. Which displacement did it give?
Answer: 1.9%

Question: Which displacement does the source give for `NS(=O)(=O)c1ccc(NC(=O)c2ccccc2C(=O)O)cc1` here?
Answer: 2.6%

Question: `COc1cc(NS(=O)(=O)c2ccc(NC(=O)c3cccc(C)c3)cc2)ncn1` was tested. Which displacement did it give?
Answer: 13.4%

Question: `CCOC(=O)c1ccc(N2NC(=O)/C(=C/c3cc(Br)ccc3O)C2=O)cc1` was tested. Which displacement did it give?
Answer: 9.2%

Question: How did the displacement turn out when `COCCN1C(=O)/C(=C/c2ccccc2)SC1=S` was run?
Answer: 5.2%

Question: With `O=[N+]([O-])c1ccccc1/C=N/n1cnnc1` as the compound, how does the displacement read?
Answer: 2.4%

Question: Which displacement does the source give for `CC(=O)NC1=NC(=O)/C(=C\c2ccccc2F)S1` here?
Answer: 107%

Question: How did the displacement turn out when `CCc1ccc(OCC(=O)Nc2cccc(OC)c2)cc1` was run?
Answer: 12.6%

Question: How did the displacement turn out when `COc1ccccc1NC(=O)c1ccc(-n2cnnn2)cc1` was run?
Answer: 0.9%

Question: Which displacement does the source give for `CCOc1ccc(C(=O)Nc2ccccc2C(F)(F)F)cc1` here?
Answer: 9.8%

Question: Which displacement does the source give for `O=C(CCc1ccccc1)N1N=C(c2cccc([N+](=O)[O-])c2)CC1(O)C(F)(F)F` (centres undefined) here?
Answer: 5.1%

Question: `Cc1ccc(-c2nnc(-c3ccncc3)o2)cc1` was tested. Which displacement did it give?
Answer: 4.2%

Question: How did the displacement turn out when `O=C(Nc1ccc(Oc2ccccc2)cc1)c1ccco1` was run?
Answer: 16.1%

Question: Which displacement does the source give for `C=CCc1ccc(OCCOCCNCCCC)c(OC)c1` here?
Answer: -7.3%

Question: How did the displacement turn out when `COc1ccc(O)c(/C=N/NC(=O)c2cccc(N3CCCC3=O)c2)c1` was run?
Answer: -3.6%

Question: For `Clc1ccc2c(Sc3cccc4cccnc34)ccnc2c1`, which displacement is on record?
Answer: -2.6%

Question: `COc1ccc(OC)c(CNc2ccccc2)c1` was tested. Which displacement did it give?
Answer: 3.9%

Question: How did the displacement turn out when `Cc1ccc(C(=O)N/C(=C/c2cccnc2)C(=O)Nc2ccc(F)cc2)cc1` was run?
Answer: -9.2%

Question: Which displacement does the source give for `O=C(Cn1cc(/C=C2/C(=O)NC(=S)N(c3ccccc3)C2=O)c2ccccc21)Nc1ccccc1` here?
Answer: 143%

Question: How did the displacement turn out when `COc1ccc(NC(=O)c2ccncc2)c(OC)c1` was run?
Answer: 12%

Question: For `NC(=O)c1c(NC(=O)c2cnccn2)sc2c1CCCC2`, which displacement is on record?
Answer: -0.3%

Question: How did the displacement turn out when `CCN1CCOC(c2ccccc2)C(C(=O)OC)C1C(=O)OC` (centres undefined) was run?
Answer: 2.6%

Question: `Cc1c(N2C(=O)S/C(=C\c3ccc([N+](=O)[O-])cc3)C2=O)c(=O)n(-c2ccccc2)n1C` was tested. Which displacement did it give?
Answer: -5.1%

Question: `CCOC(=O)c1cnn2c1NC1=C(CCc3ccccc31)C2C(F)(F)F` (centres undefined) was tested. Which displacement did it give?
Answer: 3.7%

Question: With `C=CCN1C(=O)NC(=O)/C(=C\c2ccccc2OC)C1=O` as the compound, how does the displacement read?
Answer: -8.6%

Question: Which displacement does the source give for `COc1cc(CN2CCN(Cc3ccc(C(F)(F)F)cc3)CC2)cc(OC)c1OC` here?
Answer: -3.1%

Question: `CCOC(=O)C1=C(O)/C(=C/c2ccc([N+](=O)[O-])cc2)SC1=Nc1cccc2ccccc12` was tested. Which displacement did it give?
Answer: -10.9%

Question: How did the displacement turn out when `O=C(CSc1nc2ccccc2c(=O)n1-c1ccccc1)Nc1ccccc1Cl` was run?
Answer: 8.5%

Question: With `COc1ccc(Br)cc1/C=N/NC(=O)c1c[nH]c2ccccc12` as the compound, how does the displacement read?
Answer: -8.9%

Question: `O=C(COc1ccccc1[N+](=O)[O-])Nc1ccc2oc(-c3cccc(Cl)c3)nc2c1` was tested. Which displacement did it give?
Answer: 12.4%

Question: With `Cc1ccc(C)c(S(=O)(=O)N2CCC(C)CC2)c1` as the compound, how does the displacement read?
Answer: 1.8%

Question: For `O=C(NCCNC(=O)c1ccccc1O)c1ccccc1O`, which displacement is on record?
Answer: -13.5%

Question: With `Cc1ccc(N2C(=O)c3ccc(C(=O)Nc4ccc5c(c4)OCO5)cc3C2=O)cc1C` as the compound, how does the displacement read?
Answer: 10.8%

Question: How did the displacement turn out when `COCCCNC(=O)COc1cccc2ccccc12` was run?
Answer: -10.2%

Question: `CCOc1ccc(/C=C2\C(=O)NC(=S)N(c3ccc(C)cc3)C2=O)cc1Cl` was tested. Which displacement did it give?
Answer: 12.3%

Question: With `CCCCCCCNc1ccc(NC(=O)c2ccccc2)c2c1C(=O)c1ccccc1C2=O` as the compound, how does the displacement read?
Answer: 1.5%

Question: `Nc1cc(-c2ccc(Br)cc2)nn1Cc1ccc(Cl)cc1` was tested. Which displacement did it give?
Answer: -1.3%

Question: Which displacement does the source give for `COc1cc(C(=O)Nc2ccc(S(=O)(=O)Nc3ncccn3)cc2)cc(OC)c1OC` here?
Answer: 4.4%

Question: Which displacement does the source give for `CCc1c(O)nc(SCC(=O)N2CCOCC2)n(-c2ccccc2C)c1=O` here?
Answer: 14.5%

Question: For `COc1ccc(Cl)cc1C(=O)NCCC1=CCCCC1`, which displacement is on record?
Answer: -4%

Question: For `Cc1c(Cl)cccc1NCCC(=O)c1ccc(Br)cc1`, which displacement is on record?
Answer: -14.6%

Question: With `CC1=CC(C)(C)N(C(=O)CSc2nc3ccccc3s2)c2cc(C)ccc21` as the compound, how does the displacement read?
Answer: -7.4%

Question: For `COC(=O)CCC(=O)Nc1ccc(C)c(Br)c1`, which displacement is on record?
Answer: 7.7%

Question: With `O=C(O)CCN1C(=O)/C(=C/c2ccc(-c3ccc([N+](=O)[O-])cc3)o2)SC1=S` as the compound, how does the displacement read?
Answer: -59.7%

Question: With `Cc1nc(P(=O)(c2ccccc2)c2ccccc2)c(N2CCOCC2)o1` as the compound, how does the displacement read?
Answer: -5.6%

Question: How did the displacement turn out when `O=C(NC12CC3CC(CC(C3)C1)C2)N1CCC(C(O)(c2ccccc2)c2ccccc2)CC1` was run?
Answer: -8.9%

— PubChem BioAssay AID1240 (Sanford-Burnham Center for Chemical Genomics, 2008)
